Laboratory results as given in PubChem BioAssay AID1345083 (National Center for Advancing Translational Sciences (NCATS), 2018).
Screen size: about 94,000 compounds; about 6,200 (6.6%) were called active. The shares of active, inactive and inconclusive entries below differ from those in the screen. The call rests on the fitted dose curve; in most records, active means well fitted inhibition curve with a large enough effect; inconclusive means small, poorly fitted or top-dose-only effect; inactive means flat fitted curve, though single readings scatter. Where the call is inconclusive, the potency comes from a doubtful curve fit.

test: Cytotoxic Profiling in HEK 293 Cell Line of Diverse Libraries Using Quantitative High-Throughput Screening; settings: HEK 293 viability, ATP luminescence (CellTiter-Glo), 48-72 h; series mostly up to 115 µM; further: nearly all actives have a fitted effect of over 60% in size
Outline: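 Viability of HEK 293 cells, plated at 250 cells/well, was judged by cellular ATP after compound treatment for 48 or 72 hr. Luminescence was imaged 10 min after CellTiter-Glo addition at room temperature.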
Potency means the concentration at half of the fitted maximal effect; tags describe the fitted curve by direction and shape.

SMILES | Potency
O=C(C[C@@H]1CCNC[C@@H]1Cc1cc(COc2ccccc2)on1)N1CCOCC1 | inactive
CC(C)CN(Cc1ccncc1)C1CN(C(=O)CCCc2ccccc2)C1 | inconclusive: 35.5 µM [inhibitor, partial curve, poor fit]
O[C@H]1CN[C@H](c2nc(-c3ccccn3)no2)C1 | inactive
COc1cccc(-c2ccc(C(=O)NCCNC(=O)c3ccc(C(F)(F)F)cc3)cc2)c1 | inconclusive: 89.1 µM [inhibitor, single point]
CCOC(=O)C(Cc1cccc(N2CCN(C(=O)c3ccccc3F)CC2)c1)OC (stereo not drawn) | inconclusive: 50.1 µM [inhibitor, partial curve, poor fit]
CC1Oc2ccc(NC(=O)Cc3cccs3)cc2CN(Cc2ccc(Cl)cc2)C1=O (stereo not drawn) | inconclusive: 39.8 µM [inhibitor, full curve, poor fit]
CCOC(=O)c1ccc(NC(=O)Cn2c(N(C)Cc3ccccc3)nc(C)cc2=O)cc1 | active: 39.8 µM
CC(=O)NCc1nnc2n1C(C(=O)NCCc1ccccc1F)CC2 (stereo not drawn) | inactive
O=C(O)C1=NOC2CN([S+](=O)([O-])C3CCCC3)CC12 (stereo not drawn) | inactive
CCNC(=O)C1(CCO)CCN(c2ncccn2)C1 (stereo not drawn) | inactive
O=C(c1cccc(F)c1)N1CC(Oc2ccc(-c3noc(C4CCOCC4)n3)cc2)C1 | inconclusive: 10 µM [inhibitor, full curve, poor fit]
Cc1ccc(S(=O)(=O)N2CCC(n3cnnc3C)CC2)cc1F | inactive
O=C1CC(c2ccccc2)N(C(=O)c2cccs2)CCCCCCN1 (stereo not drawn) | inconclusive: 89.1 µM [inhibitor, single point]
c1ccc(-c2cnc3n[nH]c(-c4ccc5c(c4)OCO5)c3n2)cc1 | inconclusive: 100 µM [inhibitor, partial curve]
CC1CCCCN1C(=O)Cn1ccn2nc(-c3ccc(F)cc3)c(CO)c2c1=O (stereo not drawn) | inconclusive: 50.1 µM [inhibitor, partial curve, poor fit]
O=C(NCCc1ccccc1F)C1CCN(c2nccc(Nc3ccccc3F)n2)CC1 | active: 31.6 µM
COc1ccc(C(=O)N2CCC(c3nc(CCOCC4CCOCC4)no3)C2)cn1 (stereo not drawn) | inactive
CN(Cc1ccccc1)CC1(O)CCCN(CCCc2ccccc2)C1=O (stereo not drawn) | inconclusive: 63.1 µM [inhibitor, partial curve, poor fit]
CCc1ccc(CN2CCCC23Cc2ccccc2CNC3=O)cc1 (stereo not drawn) | active: 89.1 µM
COc1ccc(C2Cn3nnc(C(=O)N4CCN(C(=O)c5cccc(Cl)c5)CC4)c3CO2)cc1 (stereo not drawn) | inconclusive: 28.2 µM [inhibitor, partial curve]
O=C(NC1CCN(c2cc(-c3ccc(F)cc3)[nH]n2)CC1)c1ccc2[nH]ccc2c1 | inconclusive: 31.6 µM [inhibitor, partial curve, poor fit]
N#Cc1cccnc1-c1cccc(C(=O)NCCNC(=O)c2cccc(Cl)c2)c1 | inconclusive: 50.1 µM [inhibitor, partial curve, poor fit]
O=C1Cc2c(-c3cccc4ccccc34)n[nH]c2CN1CCc1ccncc1 | active: 79.4 µM

SMILES | Potency
COc1ccc(-c2cn3cc(C(=O)NCC4CCCCC4)nc3s2)cc1 | inconclusive: 20 µM [inhibitor, full curve, poor fit]
O=C(NCCCc1ccccc1)C1CCCN(c2ccnc3ccnn23)C1 (stereo not drawn) | inconclusive: 50.1 µM [inhibitor, partial curve, poor fit]
CS(=O)(=O)N(C1CCOCC1)C1CCN(C(=O)C2CC2)CC1 | inactive
COC(=O)CNC(=O)C1CCCN1Cc1ccc(-c2cc(C)cc(C)c2)cc1 (stereo not drawn) | inconclusive: 50.1 µM [inhibitor, partial curve, poor fit]
Cc1cc(Cl)ccc1S(=O)(=O)N1CCC(Oc2ccc(C(N)=O)cn2)CC1 | active: 25.1 µM
O=C(NCc1cccc(C(F)(F)F)c1)c1cccc2c1CCN2C(=O)C1CC1 | inconclusive: 79.4 µM [inhibitor, partial curve, poor fit]
O=C(NCc1ccc(F)cc1)c1nc(-c2ccsc2)c2ccccn12 | inconclusive: 79.4 µM [inhibitor, partial curve, poor fit]
Cn1ncc2c(C(=O)NCC3CC3)cc(C(C)(C)C)nc21 | inconclusive: 89.1 µM [inhibitor, partial curve]
O=C1CCCCC(CNC(=O)c2cn[nH]c2-c2ccc(F)cc2)N1 (stereo not drawn) | inactive
CN(C)C(=O)C1CCCN1c1nccc(Nc2ccccc2F)n1 (stereo not drawn) | inactive
Cc1csc(NC(=O)c2cnc3c(c2)N(C(=O)Cc2ccc(C(C)C)cc2)CCC3)n1 | active: 35.5 µM
Cc1ccc(Nc2ccnc(N3CCCC3C(=O)N3CCN(Cc4ccccc4)CC3)n2)cc1 (stereo not drawn) | active: 14.1 µM
Cc1cccc(CN2CCc3nc(N(C)Cc4cccnc4)[nH]c(=O)c3CC2)c1 | inconclusive: 79.4 µM [inhibitor, single point]
CCN1CC2(CCC1=O)CCN(C(=O)[C@@](C)(N)Cc1ccccc1)CC2 | inactive
O=C(NC1CCN(Cc2ccc(-c3ccsc3)cc2)C1)c1ccncc1 (stereo not drawn) | active: 39.8 µM
O=C(CNC(=O)c1cccc(-c2ccc(C(F)(F)F)cc2)c1)NCCc1ccc(Cl)cc1 | active: 15.8 µM
O=C(Nc1cnc(-c2ccc(Cl)cc2)nc1)c1ccccc1F | inactive
O=C1CO[C@H]2CN(Cc3c[nH]c4ccccc34)C[C@H]2N1Cc1ccc(F)cc1 | inconclusive: 112 µM [inhibitor, partial curve, poor fit]
Cc1ccc(OCc2nc(C3CCN(C(=O)CCc4nc5ccc(Cl)cc5[nH]4)CC3)no2)cc1 | inconclusive: 50.1 µM [inhibitor, partial curve, poor fit]
CCCCNC(=O)C1(c2ccc(NC(=O)C(C)C)cc2)CCCCC1 | inconclusive: 79.4 µM [inhibitor, partial curve, poor fit]
CN(C)C[C@@H]1CN(Cc2ccccn2)C[C@H]1NC(=O)c1n[nH]c2ccccc12 | inconclusive: 50.1 µM [inhibitor, partial curve, poor fit]
O=C(Nc1ccc(Cl)cc1)NC1CCCN(Cc2ccc(-c3cncnc3)cc2)C1 (stereo not drawn) | inconclusive: 12.6 µM [inhibitor, full curve, poor fit]
COc1ccc(Cl)cc1-c1ccc2c(c1)C(=O)N1CC[C@H](NC(=O)C3CCCC3)C[C@H]1C(=O)N2 | inconclusive: 50.1 µM [inhibitor, partial curve, poor fit]

SMILES | Potency
CN(C)c1cccc(-c2cnc(Nc3ccc4c(c3)OCCO4)c3c2CCO3)c1 | inconclusive: 28.2 µM [inhibitor, full curve, poor fit]
Cc1ccsc1CN1CCC(n2c(C)cnc2-c2ccncc2)C1 (stereo not drawn) | inconclusive: 56.2 µM [inhibitor, partial curve, poor fit]
CNC(=O)[C@@H](c1ccc(OC)cc1)N1CCC[C@H]1C(=O)N1CCC(C)CC1 | inactive
COc1cccc(CNC(=O)c2ccc3c(c2)CC(=O)N3Cc2ccccc2)c1 | inconclusive: 89.1 µM [inhibitor, single point]
Cc1ccccc1N1CCN(C(=O)c2ccc(Cn3ccn4nc5c(c4c3=O)CCCC5)cc2)CC1 | active: 20 µM
COCC1CN(C2CCC2)CC12CCN(C(=O)c1ccc(OC)cc1C)CC2 (stereo not drawn) | inconclusive: 50.1 µM [inhibitor, partial curve, poor fit]
COc1cccc(CCC(=O)N2CCC(Oc3ccc(-c4noc(C5CC5)n4)cc3)C2)c1 (stereo not drawn) | inconclusive: 50.1 µM [inhibitor, partial curve, poor fit]
CCC(=O)N1CCN(C2CCN(Cc3ccccn3)C2=O)CC1 (stereo not drawn) | inconclusive: 100 µM [inhibitor, single point]
COc1ccccc1C(=O)N1CC(Oc2ccc(F)cc2F)C1 | inactive
O=C(COc1ccc(-c2nnc3n2CCCC3)cc1)Nc1cccc(Br)c1 | inconclusive: 56.2 µM [inhibitor, partial curve, poor fit]
COc1ccc2cc(C3CN(C(=O)c4cccc(CO)c4)CCO3)ccc2c1 (stereo not drawn) | active: 28.2 µM
CC(C)c1cc(C(=O)N2CCC(n3cc(-c4ccccn4)nn3)CC2)n(C)n1 | inconclusive: 31.6 µM [inhibitor, full curve]
CCC(=O)N1CCc2c(C(=O)NCc3cccnc3)cccc21 | inactive
O=C(c1cnccn1)N1CCCC(c2ccccc2)(c2ccccc2)C1 | inconclusive: 50.1 µM [inhibitor, partial curve, poor fit]
COc1cccc(C(=O)N2CCCC(C(=O)N3CCC(N4CCOCC4=O)CC3)C2)c1 (stereo not drawn) | inactive
Cc1ccc(C(=O)NCCn2ccn3nc(-c4ccc(C)cc4C)cc3c2=O)cc1 | inactive
OCC1COCCN(Cc2csc(-c3ccc(C(F)(F)F)cc3)n2)C1 (stereo not drawn) | inconclusive: 44.7 µM [inhibitor, partial curve, poor fit]
CCCc1noc(-c2cn(C3CCN(C(=O)c4ccc[nH]4)CC3)nn2)n1 | inactive
O=C(CC1CCOCC1)N1CCC(Cc2ccccc2)CC1 | inconclusive: 39.8 µM [inhibitor, single point]
CCc1cc(=O)n(Cc2ccccc2)c(N2CCOCC2)n1 | inconclusive: 100 µM [inhibitor, single point]
Cc1cccc(NC(=O)N2CCc3c(c4cc(F)ccc4n3C)C2)c1 | inconclusive: 79.4 µM [inhibitor, single point]
Cc1c(C(C)NC(=O)c2ccc(=O)[nH]c2)cnn1-c1cccc2ccccc12 (stereo not drawn) | inconclusive: 79.4 µM [inhibitor, partial curve]
